# Source: paper PMC12136788
# The list shows a part of the results.
# B1: chr17:45726999:45727000:-_ENSMUSG00000023942_ENSMUST00000064889|mus_hu|FALSE|FALSE (ssRNA)
# RNA: GGGAGUUCUACAGUCCGACGAUCGUUGAAGAUGGCACUGAGAGAGUUCCGCUCAGGCAAGGGUGCUGCAGGGGCGGCUGACGCCUGGGCGUCCUUGCUCAGUUCAGCAGUGACCAAGGACACAUUCUGGGACAUGUCCAGGCGCAACAGAGGAUUGAGCAUCA
# B2: chrX:140365796:140365797:-_ENSMUSG00000031285_ENSMUST00000033642|mus_mus|mus_mus_mus_hu_False|1_108 (ssRNA)
# RNA: GGGAGUUCUACAGUCCGACGAUCCUUCUCAUUACUUAGUGCCUGCAAGGUUCUGGUUCGGUAGAAGCUACAGUGGGCGCUGUGAGUGGGGCUAGGCAACCCAUUCAUCCGGGAGCCUCGCAUGUUCCUGGAUGUCUUGUCUCGCAACAGAGGAUUGAGCAUCA
# B3: chr17:45747064:45747065:+_ENSG00000108424_ENST00000290158|hu_hu|hu_hu_hu_mus_True|38_58 (ssRNA)
# RNA: GGGAGUUCUACAGUCCGACGAUCGCCCACAGUCCACGCUGUUGUGUCUCGAACAACUACACUGGGGUCUUUCAUUAAUUCUAUUAGGGUGGGCAUAGCCUGUAUAACUAAUGGUUUCAGUUGAUUAGGCUCUGGUCCUUCCAACAACAGAGGAUUGAGCAUCA
# B4: chrX:98862621:98862622:+_ENSMUSG00000034160_ENSMUST00000044475|mus_hu|mus_mus_mus_hu_False|38_88 (ssRNA)
# RNA: GGGAGUUCUACAGUCCGACGAUCCUGCAUCUCCUUUAGAGUGUUUCCCAUAUUGGAGUAGGCAUCAGCAAAGGUAGGACUGAUUCGAAUAGCCUCCUUAUAGUGCAUCAGAGCUUCCUGCAGUUUUCCCUGCUGCUGCAGUACCAACAGAGGAUUGAGCAUCA
# B5: 155198394_155198514_4022_ncRNA_ENSMUSG00000029068_ENSMUST00000139066|mouse|control|control (ssRNA)
# RNA: GGGAGUUCUACAGUCCGACGAUCCCCAGGCAUACACUCAAAGAAACAACCAGAAUGACAGCCCACAAAGUCUUACAUAACAAGUGUCCUGAGAAUUGUUUAUUCAACCACGUAAAAUUUCUCUCCAGCUGGUGGCCUGCACUCCAACAGAGGAUUGAGCAUCA
# B6: 15627206_15627326_1502_CDS_ENSG00000118564_ENST00000412094|human|control|control (ssRNA)
# RNA: GGGAGUUCUACAGUCCGACGAUCUACACAAAGACUUUCAACAUUUCUAUGUCUCCAUUCCACAGUAUCUUCAAUAUCAGCCAAAUCUUCAGCAUCUAACAUCCACACAUAAGGAGAAGUGAAAUUCUCAGAAGAAACAGGCUUCAACAGAGGAUUGAGCAUCA
# B7: chr10:127827607:127827608:+_ENSMUSG00000014498_ENSMUST00000014642|mus_mus|FALSE|FALSE (ssRNA)
# RNA: GGGAGUUCUACAGUCCGACGAUCGCCGCAGUUCUUGAGCAGGCUGAAGCUGAAAGGACUGACGGCGUCCUUGGGUGGGAAAGGCUUCAUGGUGGAAAGGAUCAAGGCCAGGCAGUCUGCCACAUCUUUGUUAGGAGCGCAGGCCAACAGAGGAUUGAGCAUCA
# B8: chr12:48362563:48362564:+_ENSG00000134291_ENST00000256686|hu_hu|hu_hu_hu_mus_False|18_108 (ssRNA)
# RNA: GGGAGUUCUACAGUCCGACGAUCUCCGAAGGGUGAAUCGAUAGACCCUUGCGGGGGAAACUGUAAUCACUUUGUAUGGGGAAGGAAAAGAAACGCCAAAAACUUUCCAAAAAGCGGUUCAAAAAGCAGGCGGGAGGGGGAGGUCAACAGAGGAUUGAGCAUCA
# B9: chr4:17845017:17845018:+_ENSG00000109805_ENST00000514176|hu_mus|hu_hu_hu_mus_False|18_88 (ssRNA)
# RNA: GGGAGUUCUACAGUCCGACGAUCGCUCUCUUAACUUGUAUCUUCAUGAGAAAUUGGUGCAAGGUUAAGUUUACUUUUCUGUAGCGCAGCUGUUUUGGCUCGUCUGGGUAAUCUCAUUUCAUUUCUGGAUGGUGGUUCAUGAUCCAACAGAGGAUUGAGCAUCA
# B10: chr11:74504092:74504093:-_ENSMUSG00000020745_ENSMUST00000021091|mus_mus|motif|central (ssRNA)
# RNA: GGGAGUUCUACAGUCCGACGAUCCUUCCUUUUUAAAAACGGAAUAUGCCUCUUCAUAGCCAUUUGAACGAAGAUAAUCUGCGGUAGCUCGAUUUAGUUCAUCUCGUUGUCUCUGGGACAGCACCAUUUUGGCUGUAAUGUCAACAACAGAGGAUUGAGCAUCA
# B11: 30731509_30731742_2321_CDS_ENSG00000099995_ENST00000215793|human|control|control (ssRNA)
# RNA: GGGAGUUCUACAGUCCGACGAUCCACCUUAAUGACAGAGACCUGGUCCGUGAGUGGGAGGGUGAAGACCAGCACCUGCCCAUUCAGUUUCCAUUCCGUCUUAUCCUGCAUGUUGGGCACCUGGACUUUGAUGGACACUGGACCCAACAGAGGAUUGAGCAUCA
# B12: chr6:33282685:33282686:-_ENSG00000236104_ENST00000431845|hu_mus|FALSE|FALSE (ssRNA)
# RNA: GGGAGUUCUACAGUCCGACGAUCGACGGUGCAACCCACGCCCUUCUCUAGAAUAUAUACAAGUCCACCGAGGUAAGGGAAGACUGUUUGGUGGGGGAAACCCCGGGAGCCAUUGCUCUUAGACUAAGCUCCCCAAUUGCCUGCCAACAGAGGAUUGAGCAUCA
# B13: chr7:7679991:7679992:-_ENSG00000106399_ENST00000396682|hu_hu|hu_hu_hu_mus_False|48_98 (ssRNA)
# RNA: GGGAGUUCUACAGUCCGACGAUCUGGGAUGAAUCUUUUCCAGCCUCCCCACGAAGCACACGGGCCGGUCGAUAUACUGUGGUAACAUGCCGGCGUUGACGCGCGCUUUGGGGAGCUGCAUUAUGUCCUCCAUGAUUCUGCCGCCAACAGAGGAUUGAGCAUCA
# B14: chr4:3761713:3761714:-_ENSMUSG00000028234_ENSMUST00000103009|mus_mus|motif|central (ssRNA)
# RNA: GGGAGUUCUACAGUCCGACGAUCCUCAACUCCCGGCUCAAUACUGAUGGAAGUAAUCUGCUUAACAAUCUCAGAAGGACGGUGUAAAUCAAUGAGUCGCUUGUGGAUCCUCAUCUGGAAUCGAUCCCAGGUCUUGGAACCUUCCAACAGAGGAUUGAGCAUCA
# Molecular target: T1, UNK ZnF1-3 (human, UniProt Q9C0B0 31-174)
# T1 sequence: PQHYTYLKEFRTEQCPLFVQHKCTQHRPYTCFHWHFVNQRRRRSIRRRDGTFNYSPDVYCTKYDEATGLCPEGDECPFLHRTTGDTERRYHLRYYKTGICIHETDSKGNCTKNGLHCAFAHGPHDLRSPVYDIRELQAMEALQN
# Experiment: nsRBNS (natural sequence RNA bind-n-seq); RBNS binding buffer (assumed for nsRBNS): 25 mM Tris pH 7.5, 150 mM KCl, 3 mM MgCl2, 0.01% Triton X-100, 500 ug/ml BSA, 20 U/ml SUPERase-In, 4 C; UNK is unkempt and MSI1 is Musashi-1; names of the RNAs are library labels; protein concentration not given here; high values mean tight binding
row,Binder,binding signal [enrichment R]
1,B1,0.985
2,B2,0.759
3,B3,0.509
4,B4,1.03
5,B5,1.59
6,B6,0.778
7,B7,1.56
8,B8,2.16
9,B9,0.435
10,B10,0.591
11,B11,0.902
12,B12,1.01
13,B13,0.373
14,B14,1.37
